{
  "source": "PubChem BioAssay (Tox21)",
  "note": "Values joined by “and” are separate entries in the source; they are usually repeats but may differ in a detail not shown here. Equal entries are not always repeated. The shares of active, inactive and inconclusive entries below differ from those in the screen. A potency beside an inconclusive call is a rough fit, not a confirmed value. Some structures have more than one record in an assay (separate samples or runs), and their calls can disagree. Active and inactive are the calls of the source. The call rests on the fitted dose curve; in most records, active means well fitted cell-killing curve with a large enough effect in the repeat runs; inconclusive means weak or mixed curves, or effect the other way; inactive means no such curve, though single readings can be large or run the other way. Potency means the concentration at half of the fitted maximal effect; tags describe the fitted curve by direction and shape.",
  "data": [
    {"assay": "qHTS assay to identify small molecule agonists of the vitamin D receptor (VDR) signaling pathway - cell viability counter screen (AID 743224); further: nearly all actives have a fitted effect of over 50% in size", "conditions": "VDR-bla HEK293T viability, CellTiter-Glo luminescence, 16 h; series mostly up to 62.6 µM", "source_text": "U.S. Tox21 Program National Center for Advancing Translational Sciences [NCATS] NIH Chemical Genomics Center [NCGC] U.S. Environmental Protection Agency [EPA] National Institutes of Environmental Health Sciences [NIEHS] National Toxicology Program [NTP] U.S. Food and Drug Administration [FDA] Tox21 Assay Overview: The vitamin D receptor (VDR), a member of nuclear hormone receptor superfamily, plays a critical role in calcium homeostasis and bone metabolism. It is also involved in cell differentiation and growth, and thrombogenicity. […] The cytotoxicity of the Tox21 compound library against the VDR-bla cell line was tested in parallel by measuring the cell viability using CellTiter-Glo assay (Promega, Madison, WI) in the same wells.\nTox21 Assay Protocol Summary: VDR-bla cells were dispensed at 2,000 cells/6 uL/well into black wall/clear-bottom 1536-well plates using a Multidrop Combi (Thermo Fisher Scientific, Waltham, MA) dispenser. After the assay plates were incubated at a 37C and 5% CO2 for 4 h, 23 nL of compounds dissolved in DMSO, positive controls or DMSO only was transferred to the assay plate by a Pintool station (Kalypsys, San Diego, CA). The plates were incubated at 37C and 5% CO2 for 16 h. After 1 uL of LiveBLAzerTM B/G FRET substrate was added using a Bioraptr Flying Reagent Dispenser (FRD) workstation (Beckman Coulter, Indianapolis, IN, USA), the plates were incubated at room temperature for 2 h, and fluorescence intensity was measured by an Envision plate reader (PerkinElmer, Shelton, CT). For cell viability readout that measures cytotoxicity, 3 ul/well of CellTiter-Glo reagent was added into the assay plates using a FRD. After 30 min incubation at room temperature, the luminescence intensity in the plates was measured using a ViewLux (PerkinElmer) plate reader.", "values": [
      {"smiles": "COc1cc(/C=C/C(=O)CC(=O)/C=C/c2ccc(O)c(OC)c2)ccc1O", "Potency": "active: 49.3 µM"},
      {"smiles": "C=C(C)C(=O)OCCC[Si](OC)(OC)OC", "Potency": "inactive"},
      {"smiles": "CCN=c1cc2oc3cc(NCC)c(C)cc3c(-c3ccccc3C(=O)OCC)c-2cc1C", "Potency": "active: 27.4 µM and active: 24.5 µM"},
      {"smiles": "COC(=O)c1c(Cl)c(Cl)c(C(=O)OC)c(Cl)c1Cl", "Potency": "inconclusive: 6.11 µM [cytotoxic, single point]"},
      {"smiles": "CS(=O)(=O)CCNCc1ccc(-c2ccc3ncnc(Nc4ccc(OCc5cccc(F)c5)c(Cl)c4)c3c2)o1", "Potency": "active: 29.8 µM"},
      {"smiles": "CCC(C)Nc1ccc(NC(C)CC)cc1", "note": "(stereo not given)", "Potency": "active: 17.7 µM"},
      {"smiles": "COc1ccc(COC(C)=O)cc1", "Potency": "inactive and inconclusive: 38.9 µM [cytotoxic, partial curve]"},
      {"smiles": "CCOC(=O)N1CCC(=C2c3ccc(Cl)cc3CCc3cccnc32)CC1", "Potency": "active: 54.9 µM"},
      {"smiles": "Oc1c(Cl)cc(Cl)c2cccnc12", "Potency": "inconclusive: 1.06 µM [cytotoxic, full curve]"},
      {"smiles": "Cc1cc(O)c(C(C)(C)C)cc1C(C)(C)C", "Potency": "active: 19.5 µM"},
      {"smiles": "CCCC(c1cc(C(C)(C)C)c(O)cc1C)c1cc(C(C)(C)C)c(O)cc1C", "Potency": "active: 7.86 µM"},
      {"smiles": "COc1ccc(CN2CCN(C(c3ccc(F)cc3)c3ccc(F)cc3)CC2)c(OC)c1OC", "Potency": "active: 29.8 µM"},
      {"smiles": "O=C1NCN(c2ccccc2)C12CCN(CCCC(c1ccc(F)cc1)c1ccc(F)cc1)CC2", "Potency": "inconclusive: 33.5 µM [cytotoxic, single point]"},
      {"smiles": "O=C1c2ccccc2C(=O)N1SC1CCCCC1", "Potency": "active: 54.9 µM and inconclusive: 61.6 µM [cytotoxic, single point]"},
      {"smiles": "Cc1cc(O)c(C(C)C)cc1Cl", "Potency": "inconclusive: 54.9 µM [cytotoxic, single point]"},
      {"smiles": "CN(C[C@@H](CC[N+]12CCC(C3CCCCC3)(CC1)CC2)c1ccc(Cl)c(Cl)c1)C(=O)c1cc(C(F)(F)F)cc(C(F)(F)F)c1", "Potency": "active: 17.4 µM"},
      {"smiles": "COc1cccc(-c2ccc(/C=C\\CN3CCCCCC3)cc2Cl)c1", "Potency": "inconclusive: 54.7 µM [cytotoxic, single point]"},
      {"smiles": "CCc1cc(Cc2cc(CC)c(N)c(CC)c2)cc(CC)c1N", "Potency": "inconclusive: 54.9 µM [cytotoxic]"},
      {"smiles": "c1ccc(Nc2cccc3ccccc23)cc1", "Potency": "active: 55.7 µM"},
      {"smiles": "CCCNC(=O)NS(=O)(=O)c1ccc(Cl)cc1", "Potency": "inactive"},
      {"smiles": "CCCCCCCCCCCCN", "Potency": "active: 49 µM"},
      {"smiles": "O=C1OC(=O)c2cc(-c3ccc4c(c3)C(=O)OC4=O)ccc21", "Potency": "active: 38.9 µM"},
      {"smiles": "O=C(Nc1ccc(Cl)cc1)Nc1ccc(Cl)c(Cl)c1", "Potency": "inconclusive: 5.96 µM [cytotoxic, full curve]"},
      {"smiles": "CCCCCCCCCCCCN1CCCC1=O", "Potency": "active: 49 µM"},
      {"smiles": "CCCCOCCOCCOCc1cc2c(cc1CCC)OCO2", "Potency": "inconclusive: 7 µM [rising, full curve, poor fit]"},
      {"smiles": "CC1=CC(=O)c2ccccc2C1=O", "Potency": "active: 17.4 µM and active: 11.9 µM"},
      {"smiles": "COc1ccccc1OCCNCC(O)COc1cccc2[nH]c3ccccc3c12", "note": "(stereo not given)", "Potency": "inconclusive: 26.6 µM [cytotoxic, partial curve]"},
      {"smiles": "CC(C)(C)c1ccc(O)c(O)c1", "Potency": "inconclusive: 12.3 µM [cytotoxic, full curve]"},
      {"smiles": "COc1ccc(OC)cc1", "Potency": "inactive"},
      {"smiles": "NC(=O)C1(N2CCCCC2)CCN(CCCN2c3ccccc3CCc3ccc(Cl)cc32)CC1", "Potency": "active: 29.8 µM"},
      {"smiles": "CCCCCCCCCCCCCCCCCCNC(=O)OC1CCN(C(=O)OC[C@H](COC(=O)N(Cc2cccc[n+]2CC)C(=O)c2ccccc2OC)OC)CC1", "Potency": "active: 26.6 µM"},
      {"smiles": "C=CCCCCCCC=C", "Potency": "active: 49.1 µM"},
      {"smiles": "NC1(c2ccc(-c3nc4ccn5c(=O)[nH]nc5c4cc3-c3ccccc3)cc2)CCC1", "Potency": "inconclusive: 0.75 µM [cytotoxic, full curve]"},
      {"smiles": "Cc1cc(Br)ccc1NC(=O)CCl", "Potency": "active: 12.3 µM"},
      {"smiles": "CC1=C(/C=C/C(C)=C/C=C/C(C)=C/C(=O)Nc2ccc(O)cc2)C(C)(C)CCC1", "Potency": "active: 14.2 µM and active: 10.6 µM"},
      {"smiles": "COC(=O)C1=C(C)NC(C)=C(C(=O)OC)C1c1ccccc1[N+](=O)[O-]", "Potency": "active: 39 µM"},
      {"smiles": "CCCC(=O)c1cc(O)c(O)cc1O", "Potency": "inconclusive: 24.5 µM [cytotoxic, partial curve, poor fit]"},
      {"smiles": "CC(C)(c1cc(Br)c(OCCO)c(Br)c1)c1cc(Br)c(OCCO)c(Br)c1", "Potency": "active: 38 µM"},
      {"smiles": "O=C(c1ccc(OCCN2CCCCC2)cc1)c1c(-c2ccc(O)cc2)sc2cc(O)ccc12", "Potency": "active: 55 µM and active: 21.9 µM and active: 33.5 µM"},
      {"smiles": "Cc1ccc(S(=O)(=O)Oc2ccc(N=Nc3ccc(-c4ccc(N=Nc5c(O)ccc6cc(S(=O)(=O)O)cc(S(=O)(=O)O)c56)c(C)c4)cc3C)cc2)cc1", "Potency": "inconclusive: 61.9 µM [cytotoxic, partial curve, poor fit]"}
    ]}
  ]
}
